Laboratory results as given in patent publication EP4722253A1 (dated 2026).

T1: rhVEGF 165 recombinant protein (human, UniProt P15692-4 27-191)
T1 construct: also called VEGF-A
T1 sequence (looked up): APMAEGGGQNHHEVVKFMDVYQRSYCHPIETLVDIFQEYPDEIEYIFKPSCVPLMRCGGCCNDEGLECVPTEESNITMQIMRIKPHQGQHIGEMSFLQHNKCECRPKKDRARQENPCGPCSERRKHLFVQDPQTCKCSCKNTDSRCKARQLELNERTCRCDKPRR


Molecular target: T1, rhVEGF 165 recombinant protein
Assay: single antigen ELISA, rhVEGF165 coated, anti-hIgG Fc-HRP

Row | EC50 | Binder
1 | 0.066 nM | Q-SBL-108 (bispecific antibody, human IgG1, kappa, copies: 1 + 1 + 1 + 1) heavy 1: [skipping about 120 residues]ASPREPQVCTLPPSREEMTKNQVSLSCAVKGFYPSDIAVEWESNGQPENNYKTTPPVLDSDGSFFLVSKLTVDKSRWQQGNVFSCSVMHEALHNHYTQKSLSLSPGKGGGGSASTKGPSVFPLAPSSKSTSGGTAALGCLVKDYFPEPVTVSWNSGALTSGVHTFPAVLQSSGLYSLSSVVTVPSSSLGTQTYICNVNHKPSNTKVDKKVEPKSSDKTHTCPPCPAPELLGGPSVFLFPPKPKDTLMISRTPEVTCVVVDVSHEDPEVKFNWYVDGVEVHNAKTKPREEQYNSTYRVVSVLTVLHQDWLNGKEYKCKVSNKALPAPIEKTISKAKGQPREPQVYTLPPCREEMTKNQVSLSCAVKGFYPSDIAVEWESNGQPENNYKTTPPVLDSDGSFFLVSKLTVDKSRWQQGNVFSCSVMHEALHNHYTQKSLSLSPGK heavy 2: EVQLVESGGGLVQPGGSLRLSCAASGYTFTNYGMNWVRQAPGKGLEWVGWINTYTGEPTYAADFKRRFTFSLDTSKSTAYLQMNSLRAEDTAVYYCAKYPHYYGSSHWYFDVWGQGTLVTVSSASTKGPSVFPLAPSSKSTSGGTAALGCLVKDYFPEPVTVSWNSGALTSGVHTFPAVLQSSGLYSLSSVVTVPSSSLGTQTYICNVNHKPSNTKVDKKV[skipping human IgG1 Fc with changes] light 1: [skipping about 100 residues]RTPREPQVYTLPPCREEMTKNQVSLWCLVKGFYPSDIAVEWESNGQPENNYKTTPPVLDSDGSFFLYSKLTVDKSRWQQGNVFSCSVMHEALHNHYTQKSLSLSPGKGGGGSRTVAAPSVFIFPPSDEQLKSGTASVVCLLNNFYPREAKVQWKVDNALQSGNSQESVTEQDSKDSTYSLSSTLTLSKADYEKHKVYACEVTHQGLSSPVTKSFNRGES light 2: DIQMTQSPSSLSASVGDRVTITCSASQDISNYLNWYQQKPGKAPKVLIYFTSSLHSGVPSRFSGSGSGTDFTLTISSLQPEDFATYYCQQYSTVPWTFGQGTKVEIKRTVAAPSVFIFPPSDEQLKSGTASVVCLLNNFYPREAKVQWKVDNALQSGNSQESVTEQDSKDSTYSLSSTLTLSKADYEKHKVYACEVTHQGLSSPVTKSFNRGEC
2 | 0.1 nM | Q-SBL-100 (bispecific antibody, human IgG1, kappa, copies: 1 + 1 + 1 + 1) heavy 1: [skipping about 120 residues]ASPREPQVYTLPPCREEMTKNQVSLSCAVKGFYPSDIAVEWESNGQPENNYKTTPPVLDSDGSFFLVSKLTVDKSRWQQGNVFSCSVMHEALHNHYTQKSLSLSPGKGGGGSASTKGPSVFPLAPSSKSTSGGTAALGCLVKDYFPEPVTVSWNSGALTSGVHTFPAVLQSSGLYSLSSVVTVPSSSLGTQTYICNVNHKPSNTKVDKKVEPKSSDKTHTCPPCPAPELLGGPSVFLFPPKPKDTLMISRTPEVTCVVVDVSHEDPEVKFNWYVDGVEVHNAKTKPREEQYNSTYRVVSVLTVLHQDWLNGKEYKCKVSNKALPAPIEKTISKAKGQPREPQVYTLPPCTLPPSREEMTKNQVSLSCAVKGFYPSDIAVEWESNGQPENNYKTTPPVLDSDGSFFLVSKLTVDKSRWQQGNVFSCSVMHEALHNHYTQKSLSLSPGK heavy 2: EVQLVESGGGLVQPGGSLRLSCAASGYTFTNYGMNWVRQAPGKGLEWVGWINTYTGEPTYAADFKRRFTFSLDTSKSTAYLQMNSLRAEDTAVYYCAKYPHYYGSSHWYFDVWGQGTLVTVSSASTKGPSVFPLAPSSKSTSGGTAALGCLVKDYFPEPVTVSWNSGALTSGVHTFPAVLQSSGLYSLSSVVTVPSSSLGTQTYICNVNHKPSNTKVDKKV[skipping human IgG1 Fc with changes] light 1: [skipping about 100 residues]RTPREPQVCTLPPSREEMTKNQVSLWCLVKGFYPSDIAVEWESNGQPENNYKTTPPVLDSDGSFFLYSKLTVDKSRWQQGNVFSCSVMHEALHNHYTQKSLSLSPGKGGGGSRTVAAPSVFIFPPSDEQLKSGTASVVCLLNNFYPREAKVQWKVDNALQSGNSQESVTEQDSKDSTYSLSSTLTLSKADYEKHKVYACEVTHQGLSSPVTKSFNRGES light 2: DIQMTQSPSSLSASVGDRVTITCSASQDISNYLNWYQQKPGKAPKVLIYFTSSLHSGVPSRFSGSGSGTDFTLTISSLQPEDFATYYCQQYSTVPWTFGQGTKVEIKRTVAAPSVFIFPPSDEQLKSGTASVVCLLNNFYPREAKVQWKVDNALQSGNSQESVTEQDSKDSTYSLSSTLTLSKADYEKHKVYACEVTHQGLSSPVTKSFNRGEC
